From paper PMC5572923
No constants are given. Whether binding was seen depends on the method and setting. In cells and extracts the contact can be indirect. Some results given as binding are weak or reduced against the parent protein; the word gives no strength. Where a sequence is shown, tags or fusion partners need not be part of it.

Amino acid sequences for entries named in this document (tags omitted).
UniProt O60346: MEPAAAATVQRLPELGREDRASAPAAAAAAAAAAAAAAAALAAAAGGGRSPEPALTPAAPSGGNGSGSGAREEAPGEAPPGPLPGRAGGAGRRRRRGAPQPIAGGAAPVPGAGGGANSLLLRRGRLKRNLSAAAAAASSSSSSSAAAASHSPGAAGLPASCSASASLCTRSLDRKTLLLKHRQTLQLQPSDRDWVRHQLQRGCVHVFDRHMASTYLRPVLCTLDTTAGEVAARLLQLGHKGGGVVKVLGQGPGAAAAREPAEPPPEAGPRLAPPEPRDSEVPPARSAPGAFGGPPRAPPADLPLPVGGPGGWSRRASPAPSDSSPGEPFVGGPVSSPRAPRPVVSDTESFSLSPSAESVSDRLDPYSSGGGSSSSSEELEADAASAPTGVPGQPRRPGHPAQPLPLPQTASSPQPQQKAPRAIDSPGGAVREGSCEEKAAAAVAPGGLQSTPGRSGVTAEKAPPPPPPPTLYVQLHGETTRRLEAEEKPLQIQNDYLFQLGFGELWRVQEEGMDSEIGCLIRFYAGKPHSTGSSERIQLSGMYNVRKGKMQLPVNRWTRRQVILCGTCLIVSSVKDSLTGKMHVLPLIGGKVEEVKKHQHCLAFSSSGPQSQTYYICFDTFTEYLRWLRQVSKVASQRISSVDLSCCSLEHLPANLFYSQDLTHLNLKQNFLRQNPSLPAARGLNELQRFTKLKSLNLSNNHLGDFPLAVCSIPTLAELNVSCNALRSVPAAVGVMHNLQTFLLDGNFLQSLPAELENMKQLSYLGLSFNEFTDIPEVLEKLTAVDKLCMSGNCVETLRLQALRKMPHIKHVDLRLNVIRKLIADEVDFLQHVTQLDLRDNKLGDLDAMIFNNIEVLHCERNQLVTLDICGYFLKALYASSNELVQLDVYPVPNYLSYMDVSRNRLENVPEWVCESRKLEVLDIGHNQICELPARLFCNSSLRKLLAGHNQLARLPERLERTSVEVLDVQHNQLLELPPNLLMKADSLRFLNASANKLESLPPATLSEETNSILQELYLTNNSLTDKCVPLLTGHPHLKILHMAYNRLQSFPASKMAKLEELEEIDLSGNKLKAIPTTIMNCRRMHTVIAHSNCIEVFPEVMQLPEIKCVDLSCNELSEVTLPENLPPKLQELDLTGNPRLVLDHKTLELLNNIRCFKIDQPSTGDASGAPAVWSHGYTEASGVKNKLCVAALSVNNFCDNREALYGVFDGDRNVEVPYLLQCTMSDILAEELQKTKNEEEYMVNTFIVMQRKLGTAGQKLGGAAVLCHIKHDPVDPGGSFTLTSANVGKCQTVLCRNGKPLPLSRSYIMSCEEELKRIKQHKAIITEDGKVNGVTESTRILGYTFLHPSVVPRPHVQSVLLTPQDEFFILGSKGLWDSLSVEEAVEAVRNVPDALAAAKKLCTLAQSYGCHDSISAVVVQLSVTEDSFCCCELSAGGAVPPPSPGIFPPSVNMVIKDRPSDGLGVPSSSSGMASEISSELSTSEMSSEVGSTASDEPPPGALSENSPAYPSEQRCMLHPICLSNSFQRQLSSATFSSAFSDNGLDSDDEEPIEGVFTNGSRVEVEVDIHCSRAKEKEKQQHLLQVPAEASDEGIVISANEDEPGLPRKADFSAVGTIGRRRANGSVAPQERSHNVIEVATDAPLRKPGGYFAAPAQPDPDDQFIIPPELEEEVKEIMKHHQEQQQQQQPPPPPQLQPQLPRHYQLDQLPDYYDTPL

Experiments:
[1] = target: T1, SFB-SGT1 (triple-tagged SGT1, wild type), in HeLa (human) (UniProt Q9Y2Z0); test: condition: only later stages of mitosis, post-kinetochore assembly; co-IP; HeLa cells expressing SFB-SGT1, nocodazole arrest and release, later stages of mitosis (post-kinetochore assembly); streptavidin beads; blots with PHLPP1 and RNF41 antibodies (Fig. 7A)
T1 sequence: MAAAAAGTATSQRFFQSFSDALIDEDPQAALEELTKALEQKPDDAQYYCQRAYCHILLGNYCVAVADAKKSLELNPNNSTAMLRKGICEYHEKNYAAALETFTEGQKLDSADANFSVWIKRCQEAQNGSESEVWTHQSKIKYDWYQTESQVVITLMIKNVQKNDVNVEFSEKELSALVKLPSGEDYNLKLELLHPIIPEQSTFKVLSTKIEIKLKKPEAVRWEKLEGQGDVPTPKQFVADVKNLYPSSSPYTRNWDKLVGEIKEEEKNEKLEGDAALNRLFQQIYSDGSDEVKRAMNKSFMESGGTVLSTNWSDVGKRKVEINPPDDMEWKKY

[2] = target: T1, SFB-SGT1 (triple-tagged SGT1, wild type), in HeLa (human); test: co-IP; HeLa cells expressing SFB-SGT1, nocodazole arrest and release, early stages of mitosis; streptavidin beads; blots with PHLPP1 and RNF41 antibodies (Fig. 7A)
[3] = target: T1, SFB-SGT1 (triple-tagged SGT1, wild type), in HeLa (human); test: co-IP; HeLa cells expressing SFB-SGT1, nocodazole arrest and release, later stages of mitosis (post-kinetochore assembly); streptavidin beads; blots with PHLPP1 and RNF41 antibodies (Fig. 7A)

binding [1]: no binding
binding [2]: binds
binding [3]: binds
Substance: PHLPP1, endogenous in HeLa (from UniProt O60346 1-1717) (enzyme)
